The labels stand for the following.
B1: TPR 5TU (parent)
chain: GGAUCUUCUCGAUCUAACAAAAAAGACAAAUCUGCCACAAAGCUUGAGAGCAUCUUCGGAUGCAGAGGCGGCAGCCUUCGGUGGCGCGAUAGCGCCAACGUUCUCAACUAUGACACGCAAAACGCGUGCUCCGUUGAAUGGAGUUUAUCAUG

This sample is rich in variants without activity. Where only a bound is given, the exact number is not on record here.

In this data set the parent is B1. The data set can be described thus: polymerase ribozyme fitness, log enrichment relative to wild type (log ratio); higher = more active; in vitro selection for triplet polymerase activity. A digest of the protocol:
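Input and output libraries were sequenced on Illumina after a single in vitro selection round, run in triplicate on PCR-built, transcribed mutant libraries of each subunit of a heterodimeric triplet polymerase ribozyme. Selection annealed libraries to a biotinylated primer, the partner subunit and triplets, incubated them frozen at −7 °C, then gel-excised extended constructs for streptavidin-bead capture and RT-PCR. Genotypes with ≥10 input reads and ≥1 read per output were kept. Fitness is the logarithm, taken in base 2, of genotype enrichment divided by wild-type enrichment, using inverse-variance-weighted replicate averages.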
Regarding GGAUCUUCUCGAUCUAACAAAAAAGACAAAUCUGCCACAAAGCUUGAGAGCAUCUUCGGAUCCAGAGGCGGUAGCCUUCGGUGGCGCGAUAGUGCCAACGUUCUCAACUAUGACACGCAAAACGCGUGCUCCAUUGAAUGUAGUUUAUCAUG, the “polymerase ribozyme fitness (log ratio)” value is not above -4.2.
Then GGAUCUUCUCGAUCUAACAAAAAAGACAAAUCUGCCACAAAGCUUGAGAGCAUCUUCGGAUACAGAGGCGGCAGCCUUCGGUGGCGCGAUAGCGCCAACGUUCUCAAAUAUGACACGCAAAACGCGUGCUCAGUUGAAGGGAGUUUAUCAUG, with not above -4.2; and GGAUCUUCUCGAUCUAACAAAAAAGACAAAUCUGCCACAAAGCUUGAGAGCAUCUUCGGAUACAGAGCCGGCAGCCUUCGGAGGGGCGAUAGCGGCAACGCUCUCAACUAUGACACGCAAAACGCGUGCUCCGUUGAAUGGAGUCUAUCAUG, with not above -4.2.
Then GGAUCUUCUCGAUCUAACAAAAAAGACAAAUCUGCCACAAAGCUUGAGAGCAUCUUCGGAUCCAGAGGCGGCAGCCUACGGUGGCGCGAUAGCGCCAACGUUCUCGACUAUGACACGCAAAACGCGUGCUCCGUUGAAAGGAGUUUAGCAUG, with not above -4.2; and GGAUCUUCUCGAUCUAACAAAAAAGACAAAUCUGCCACAAAGCUUGAGAGCAUCUUCGGAUACAGGAGCGGCAGCCUUCGGUAGCGCGAUAGCGCCAACGUUCUCAACUAUGACACGCAAAACGUGUGCUCCGUUGAAUGGAGUUUAUCAUG, with not above -4.2; and GGAUCUUCUCGAUCUAACAAAAAAGACAAAUCUGCCACAAAGCUUGAGAGCAUCUUCGGAUCCAGAGGCGCCAGCCUUCGGAGGCGCGAUAGCGUCUACGUUCUCAACUAUGACACGCAAAACGCGUGCUCCGUUGAAUGGAGUUUAUCAUG, with not above -4.2.
Next, GGAUCUUCUCGAUCUAACAAAAAAGACAAAUCUGCCACAAAGCUUGAGAGCAUCUUCGGAUACAGAGGCGGCAGCCUUCGGUGACGCGAUAGCGCCAACGUUCUCAACUAUGACACGCAAAACGCGUGCUCCGUAGAAUGGAGUUUAUCAUG: -1.93; GGAUCUUCUCGAUCUAACAAAAAAGACAAAUCUGCCACAAAGCUUGAGAGCAUCUUCGGAUUCCGAGGCGGCAGCCUUCGGUGGCGGAAUAGCGCCAACGUUGUCAACUAUGACACGCAAAACGCGUGCUCCAUUGAAUGGAGUUUAUCAUG: not above -4.2; GGAUCUUCUCGAUCUAACAAAAAAGACAAAUCUGCCACAAAGCUUGAGAGCAUCUUCGGAUACAGAGGCGGCAGCCUUCGGUGACGCGACAGCGCCAACGUUCUCAACUAUGACACGCAAAACGCGUGCUCCGUUGAAUCGAGUUUAUCAGG: not above -4.2.
For GGAUCUUCUCGAUCUAACAAAAAAGACAAAUCUGCCACAAAGCUUGAGAGCAUCUUCGGAUACAGAGGCGGCAGCCUUCGGUGGCGCGAUAGAGCCAACGUUCUCAACUAUGACACGCAAAACGCGUGCUCCGUUGAAUGGAGUUUAUCAUG, the “polymerase ribozyme fitness (log ratio)” value is -1.93.
For the variant GGAUCUUCUCGAUCUAACAAAAAAGACAAAUCUGCCACAAAGCUUGAGAGCAUCUUCGGAUCCAGAGGCGGCAGCCUUUGGUGGCGCGAUAGCGCCAACGUUCUCAACUAUGACACGCAAAACGCGUGCUCCGUUGAAUGUAGUUUAUCAUG, the “polymerase ribozyme fitness (log ratio)” value is not above -4.2.
Take GGAUCUUCUCGAUCUAACAAAAAAGACAAAUCUGCCACAAAGCUUGAGAGCAUCUUCGGAUACAGAGGCGGCAGCCUUCGGUGGCGCGAUAGCGCCAACGUUUUCAACUAUGACACGCAAAACGCGUGCUCCGUUGAAUGGAGUUUAUCAUG: the “polymerase ribozyme fitness (log ratio)” value was -1.66.
Next, GGAUCUUCUCGAUCUAACAAAAAAGACAAAUCUGCCACAAAGCUUGAGAGCAUCUUCGGAUCCAGAGGCGGCAGCCUUCGGUGGCGUGAUAGCGCUAACGUUCUCAACUCUGACACGCAAAACGCGUGCUCCGUUGAAUGGAGUUUAUCAUG: not above -4.2; GGAUCUUCUCGAUCUAACAAAAAAGACAAAUCUGCCACAAAGCUUGAGAGCAUCUUCGGAUCCAGAGGCGGCAGCCUUAGGUGGCGCGAUAGCGCCAACGUUCUCAACUAUGACACGCAAAACGCGUGCUCCGUUGAAUGGAGUUUAUCAUG: not above -4.2; GGAUCUUCUCGAUCUAACAAAAAAGACAAAUCUGCCACAAAGCUUGAGAGCAUCUUCGGAUCCAGAGGCGGCAGCCUUCGGUGGCGCGAUAGCGCCAACGUUCUCAAAUAUGACACGCAAAACGCGUGCUCCGUGGAAUGGAGUUUAUCAUG: not above -4.2.
For the variant GGAUCUUCUCGAUCUAACAAAAAAGACAAAUCUGCCACAAAGCUUGAGAGCAUCUUCGGAUACAGAGGCGGCGGCCUUCGGUGGCGUGAUAGCGCCAACGUACUCAACUAUGACACGCAAAACGCGUGAUCCGUUGAAUGGAGUUUCUCAUG, the “polymerase ribozyme fitness (log ratio)” value is not above -4.2.
Then GGAUCUUCUCGAUCUAACAAAAAAGACAAAUCUGCCACAAAGCUUGAGAGCAUCUUCGGAUCCAGAUGCGGCAGCCUUCGGUGGCGCGAUGGCGCCAACGUUCUCAACUAGGACACGCAGAACGCGUGCUCCGUUGAAUGGAGUUUAUGAUG, with not above -4.2; and GGAUCUUCUCGAUCUAACAAAAAAGACAAAUCUGCCACAAAGCUUGAGAGCAUCUUCGGAUACAGAGGCGGCAGCCUUCGGUGGCGCGGUCGCGCCAACGCUCUCAACUAUGACACGCAAAACGCGUGCUCUGUUGAAUGGAGUUUAUCAUG, with not above -4.2.
Then GGAUCUUCUCGAUCUAACAAAAAAGACAAAUCUGCCACAAAGCUUGAGAGCAUCUUCGGAUCCAGAGGCGGCAGCCUUCGGUGGCGCGAUAGCGCCAACGUUCUCAACUAUGACACGCAAAACGCGUGCUCCGUUGCAUGGAGUUUAGCAUG, with not above -4.2; and GGAUCUUCUCGAUCUAACAAAAAAGACAAAUCUGCCACAAAGCUUGAGAGCAUCUUCGGAUCCAGAGGCGGUAGCCUUCGGUGGUGCGAUAGCGCCAACGUUCUCAAUUAUGACACGCAAAACGCGUGCUCCGUUGAAUGGAGUUUAUCAUG, with not above -4.2.
Then GGAUCUUCUCGAUCUAACAAAAAAGACAAAUCUGCCACAAAGCUUGAGAGCAUCUUCGGAUUCAGAGGCGGCAGCCUUCGGUGGCGCGAUAGCGCCAACGUUCUCAACUUUGACACGCAAAACGCGUGCUCCGUUGAAUGGAGUUUAUCAUG, with not above -4.2; and GGAUCUUCUCGAUCUAACAAAAAAGACAAAUCUGCCACAAAGCUUGAGAGCAUCUUCGGAUACAGAGGCGGCAGUCUGCGGUGGCGCGAUAGCGCAAACGUUCUCAACUAUGACACGCAAAACGCGUGCUCCGCUGACUGGAGUUUAUCAUG, with not above -4.2.
Take GGAUCUUCUCGAUCUAACAAAAAAGACAAAUCUGCCACAAAGCUUGAGAGCAUCUUCGGAUACAGAGGCGGCAGCCUUAGGUGGCGCGAUAGCGCCAACGUUCUCAACUAUGACACGCGAAACGCGUGCUCCGUUGAAUGGAGUUUAUCAUG: the “polymerase ribozyme fitness (log ratio)” value is not above -4.2.
Next, GGAUCUUCUCGAUCUAACAAAAAAGACAAAUCUGCCACAAAGCUUGAGAGCAUCUUCGGAUACAGAGCCGGCAGCAUUCGGUGGCGGGAUAGCGCCAACGUUCUAAACUAUGACACGCAAAACGCGUGCUCCGUUGAAUGCAGUUUAUCAUG: not above -4.2.
Take GGAUCUUCUCGAUCUAACAAAAAAGACAAAUCUGCCACAAAGCUUGAGAGCAUCUUCGGAUACAGAGGCGGCAGCCUUCGGUGGCGUGAUAUCGCCAACGUUCUCAACUAUGACACGCAAAACGCGUGCUCCGUUGAAUGGAGUUUCUCAAG: the “polymerase ribozyme fitness (log ratio)” value was not above -4.2.
For the variant GGAUCUUCUCGAUCUAACAAAAAAGACAAAUCUGCCACAAAGCUUGAGAGCAUCUUCGGAUACAGAGGCGGCAGCCUUGGGUUGCGCGAUAGCGCCAACGUUUUCAGCUAUGACAGGCAAAACGCGUGCUCCGUUGAAUGGAGUUUAACAUG, the “polymerase ribozyme fitness (log ratio)” value was not above -4.2.
On to GGAUCUUCUCGAUCUAACAAAAAAGACAAAUCUGCCACAAAGCUUGAGAGCAUCUUCGGAUACAGAGGCGGCAGCCUUCGGUGGCGCGAUAGCGCCAACGUUCUCAACUAUGACACGCAAAACGCGUACUCCGUUGAAUGGAGUUUAUCAUG, for which the “polymerase ribozyme fitness (log ratio)” value was not above -4.2.
Next, GGAUCUUCUCGAUCUAACAAAAAAGACAAAUCUGCCACAAAGCUUGAGAGCAUCUUCGGAUCCAGAGGCGGCACCCUUCGGUAGCGCGAUAGCGCCAACGUUCUCAACUAUGACACGCAAAACGCGUGCUCCGUUGAAUGGAGUUUAUCAUG: not above -4.2; GGAUCUUCUCGAUCUAACAAAAAAGACAAAUCUGCCACAAAGCUUGAGAGCAUCUUCGGAUUUAGAGACGGCAGCCUUCGGUGGCGCGAUAGCGACAACGUUAUCAACUAUGACACGCAAAACGCGUGCUCCGUUGAAUGGAGUUUAUCAUG: not above -4.2.
Consider GGAUCUUCUCGAUCUAACAAAAAAGACAAAUCUGCCACAAAGCUUGAGAGCAUCUUCGGAUACAGAGGUGGCAGCCUUCUGUGGCGCGAUAGCGCCAACGUUCUCAACUAUGACACGCAAAACGCGUGCUCCGUUGAAUGGAGUUUAUCAUG, for which the “polymerase ribozyme fitness (log ratio)” value was not above -4.2.
Then GGAUCUUCUCGAUCUAACAAAAAAGACAAAUCUGCCACAAAGCUUGAGAGCAUCUUCGGAUUCAGAGGCGGCAGCCUUCGGUGGCGCGAUAGCGCCAACGUUCUCCACUAUGACACGCAAAACGCGUGCUCCGUUGAAUGGAGUUGAUUAUG, with -3.91.
Next, GGAUCUUCUCGAUCUAACAAAAAAGACAAAUCUGCCACAAAGCUUGAGAGCAUCUUCGGAUACAGAGGGGGCAGCGUUCGGUGGCGCGAUAGCGCCAACGUUCUCAACUAUGACACGCAAAACGCGUGCUCCGUUGAAUGGAGUUUAUCAUG: not above -4.2; GGAUCUUCUCGAUCUAACAAAAAAGACAAAUCUGCCACAAAGCUUGAGAGCAUCUUCGGAUCCAGAGGCGGCAGCCUUCGGUGGCGCGAUAGCGCCAACGUUCUCAACUAUGACACGCAAAACGCGUGCUCCGUUGAAUGCAGUUUAUCAUG: -0.741; GGAUCUUCUCGAUCUAACAAAAAAGACAAAUCUGCCACAAAGCUUGAGAGCAUCUUCGGAUCCUGAGGCGGCAGCCUGCGGUGGCGCGAUAGCGCCAACGUUCUCAACUAUGACACGCAAAACGCGGGCUCCGUUGAAUGGAGUUGAUCAUG: not above -4.2.
Regarding GGAUCUUCUCGAUCUAACAAAAAAGACAAAUCUGCCACAAAGCUUGAGAGCAUCUUCGGAUUUGGAGGCGGCAGCGUUCGGUGUCGCGAUCGCGCGAACGUUCUCAAGUAUGACACGCAAAACGCGUGCUGCGUUGAAUGGAGUUUAUCAUG, the “polymerase ribozyme fitness (log ratio)” value was not above -4.2.
Take GGAUCUUCUCGAUCUAACAAAAAAGACAAAUCUGCCACAAAGCUUGAGAGCAUCUUCGGAUUCAGAGGCGGCCGCCUUCGGUGGCGCGAUAGCGGCAACGUUCUCAACUAUGUCAGGCAAAACGCGUGCUCCGUUGAAUGGAGUCUAUCAUG: the “polymerase ribozyme fitness (log ratio)” value is not above -4.2.
Next, GGAUCUUCUCGAUCUAACAAAAAAGACAAAUCUGCCACAAAGCUUGAGAGCAUCUUCGGAUCCCGAGGCGGCAGCCUUCGGUGGCCGGAUAGCGCCAACGUUCUCAACUAUGACACGCAAAACGCGUUCUCCGUUGAAUGGAGUGUAUCAUG: not above -4.2; GGAUCUUCUCGAUCUAACAAAAAAGACAAAUCUGCCACAAAGCUUGAGAGCAUCUUCGGAUACAGAGGCGGCAGCCUUCGGUGGCGCGAUAGCGCCAACGUUCUCGACUAUGACACGCAAAACGCGUGCGCCGUUGAAUGGAGUUUAUGAUG: not above -4.2.

The record behind these values is the RNAGym collection of RNA variant scans (doi:10.1073/pnas.2313332121).
